# From the supplement of paper PMC8291772
# ± gives the standard error. The list shows a part of the results.
# Target: terminal deoxynucleotidyl transferase (calf thymus) (UniProt P06526)
# Test: TdT poly-dT extension signal (Cy3 hybridisation fluorescence, uncapped minus capped) (fluorescence a.u.); higher = more efficient initiation of TdT extension
# Conditions: initiator chemistry: 2'-O-methyl-RNA, free 3'-OH (5'-tethered via HEG linker)
# Method: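 All mono- to pentamer 2'-O-methyl-RNA initiators were made by photolithographic in situ synthesis (3'-NPPOC amidites, reverse direction, free 3'-OH) on glass on a hexaethylene glycol linker. Each was made in uncapped and DMTr-dT-capped versions, about 11 replicates each. Arrays were extended with calf thymus TdT (0.2 U/uL), 100 uM dTTP and 0.25 mM CoCl2 for 120 min at 37 C, hybridised with an rA18-Cy3 probe and scanned at 532 nm. The value is the mean uncapped minus the mean capped signal. IDs are written 3'->5' and are reversed to 5'->3'; all nucleotides are 2'-OMe.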
# Sequence of UniProt P06526 (P06526 whole entry): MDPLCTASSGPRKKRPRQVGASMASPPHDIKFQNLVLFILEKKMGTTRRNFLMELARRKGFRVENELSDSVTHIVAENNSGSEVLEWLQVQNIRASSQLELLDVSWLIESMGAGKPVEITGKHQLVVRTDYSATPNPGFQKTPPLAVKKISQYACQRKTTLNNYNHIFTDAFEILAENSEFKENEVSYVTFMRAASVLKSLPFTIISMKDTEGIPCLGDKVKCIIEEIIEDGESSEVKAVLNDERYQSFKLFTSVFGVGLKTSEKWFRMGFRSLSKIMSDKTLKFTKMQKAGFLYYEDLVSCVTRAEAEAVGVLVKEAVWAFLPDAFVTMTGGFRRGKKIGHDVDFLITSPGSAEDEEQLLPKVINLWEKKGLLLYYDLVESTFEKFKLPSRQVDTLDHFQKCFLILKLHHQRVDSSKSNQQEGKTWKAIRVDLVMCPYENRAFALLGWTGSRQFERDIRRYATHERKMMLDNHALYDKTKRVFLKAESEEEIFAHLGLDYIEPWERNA
row,Sequence,TdT poly-dT extension signal
1,UAGCG,313 ± 25
2,GCACC,529 ± 45
3,UGUCG,160 ± 19
4,GGGUC,582 ± 38
5,UGGC,907 ± 53
6,UGGUC,503 ± 45
7,UUCC,422 ± 36
8,UCACA,352 ± 26
9,GGAAG,497 ± 83
10,GACC,422 ± 36
11,UAGGA,530 ± 36
12,UCUCC,388 ± 25
13,CGUUA,322 ± 27
14,GACG,225 ± 22
15,ACGA,632 ± 82
16,GCCU,350 ± 38
17,AUUUC,283 ± 15
18,UUAGA,611 ± 30
19,UAAAC,667 ± 36
20,CGGU,476 ± 46
21,CUGAC,549 ± 28
22,CGAU,429 ± 24
23,CAAC,741 ± 45
24,GCUUG,230 ± 30

row,Sequence,TdT poly-dT extension signal
1,UACUU,316 ± 30
2,UCGUU,288 ± 39
3,GCUC,529 ± 37
4,AGCAU,538 ± 47
5,UCAAU,528 ± 49
6,CACCA,369 ± 15
7,AGGUC,508 ± 15
8,GGCCU,354 ± 33
9,AGUGC,1230 ± 130
10,GAUGG,187 ± 13
11,UAUAA,618 ± 64
12,UGGAA,808 ± 54
13,CCGAC,582 ± 120
14,CCACC,410 ± 37
15,CUUCG,138 ± 9.5
16,AGAGU,499 ± 44
17,UACAC,679 ± 35
18,CUAAG,386 ± 36
19,UCUGG,193 ± 14
20,AACAU,577 ± 67
21,CCCAG,497 ± 38
22,CGCGC,845 ± 76
23,GUCCA,319 ± 24
24,UGAGC,1000 ± 68

row,Sequence,TdT poly-dT extension signal
1,CUAGG,361 ± 32
2,UGCAA,770 ± 77
3,ACCAG,559 ± 61
4,GUUCC,438 ± 42
5,ACAAC,774 ± 98
6,CGAAC,686 ± 37
7,UCGA,592 ± 34
8,UAUUU,210 ± 20
9,UCGAA,708 ± 55
10,GCUU,350 ± 26
11,GUCGA,446 ± 26
12,UCCAA,976 ± 50
13,AGAA,990 ± 120
14,CUCAG,488 ± 37
15,GCUAA,706 ± 63
16,AAGUA,513 ± 45
17,UGAUG,151 ± 12
18,GUAAC,558 ± 40
19,GUUGA,369 ± 18
20,CCGGG,270 ± 27
21,UCUUG,211 ± 29
22,AAAUC,471 ± 28
23,GCAC,752 ± 62
24,GCAGC,1060 ± 59

row,Sequence,TdT poly-dT extension signal
1,AGUGA,443 ± 32
2,UUUCG,131 ± 6.9
3,UGGUU,267 ± 14
4,AUAAU,413 ± 31
5,GUUC,472 ± 64
6,GAUU,241 ± 15
7,UGGCA,337 ± 28
8,GGGG,428 ± 23
9,AUCAA,779 ± 54
10,AACAG,567 ± 34
11,CCAU,489 ± 37
12,GAAUA,579 ± 39
13,GGACU,318 ± 51
14,GCGCG,416 ± 69
15,UGAGA,565 ± 46
16,CGAUA,591 ± 49
17,GCGC,946 ± 73
18,AGACC,484 ± 42
19,UAGAC,713 ± 53
20,UCUA,508 ± 41
21,ACGCU,411 ± 67
22,GACGU,375 ± 38
23,CCAA,1060 ± 95
24,AGGCC,484 ± 40

row,Sequence,TdT poly-dT extension signal
1,GCAGA,846 ± 100
2,CGUGG,249 ± 16
3,GGCUA,621 ± 50
4,AACC,465 ± 17
5,ACAUU,297 ± 21
6,UGUGC,1360 ± 95
7,CCCGU,537 ± 48
8,GCUCA,368 ± 32
9,CACAU,469 ± 23
10,AGUCC,475 ± 37
11,ACAAA,1170 ± 100
12,GGUA,376 ± 23
13,AAAGA,848 ± 45
14,GGAUG,194 ± 18
15,GCAAC,935 ± 81
16,UGCA,390 ± 33
17,CCCA,424 ± 53
18,GAUGU,324 ± 40
19,CCGGA,551 ± 52
20,UUUC,341 ± 23
21,AAGAU,506 ± 39
22,CAGUU,356 ± 28
23,CUCCA,413 ± 57
24,CUGGG,263 ± 31

row,Sequence,TdT poly-dT extension signal
1,CUCUU,266 ± 14
2,CCUAU,363 ± 16
3,GUUUA,322 ± 47
4,CCUGA,403 ± 24
5,UUAUG,142 ± 12
6,AGGAU,433 ± 28
7,AGCUG,299 ± 29
8,UCCA,384 ± 29
9,UUCAA,986 ± 56
10,CGGC,808 ± 38
11,GCCCU,315 ± 31
12,CUCGC,1080 ± 64
13,AGCCA,324 ± 16
14,GAGC,1040 ± 49
15,GUGGG,354 ± 38
16,CUGCU,342 ± 29
17,CAUUG,172 ± 14
18,GAUUU,219 ± 20
19,UCGUC,472 ± 19
20,ACACG,365 ± 26
21,AUUAC,389 ± 26
22,AUACC,330 ± 28
23,GAAA,879 ± 110
24,AUCCU,305 ± 24

row,Sequence,TdT poly-dT extension signal
1,UUGCG,233 ± 25
2,AGUGG,280 ± 18
3,AAAGC,1270 ± 67
4,GGAUC,487 ± 52
5,CAGAC,698 ± 45
6,AUGCC,528 ± 35
7,GCCG,192 ± 16
8,UGGUA,391 ± 20
9,AGACG,307 ± 21
10,ACCUA,571 ± 34
11,CCUAG,353 ± 33
12,AUCA,332 ± 18
13,CACAG,535 ± 36
14,CAAUU,301 ± 30
15,CUACC,316 ± 29
16,GAGAU,514 ± 56
17,UAGUA,541 ± 42
18,CUUAG,296 ± 21
19,GUCAG,364 ± 37
20,AAAAC,736 ± 43
21,CGUU,237 ± 21
22,ACACC,533 ± 73
23,CGGCC,713 ± 120
24,UGAU,380 ± 24

row,Sequence,TdT poly-dT extension signal
1,UAAGG,350 ± 28
2,CAGG,485 ± 57
3,GGAGG,415 ± 33
4,AUUG,158 ± 20
5,CUCCG,194 ± 14
6,UAGAG,533 ± 46
7,CCAAC,725 ± 53
8,GAAG,447 ± 35
9,UAGUG,189 ± 14
10,ACCUG,304 ± 18
11,UGCG,251 ± 32
12,GCGUU,366 ± 27
13,CACCC,485 ± 45
14,CGUC,478 ± 43
15,GUCCU,309 ± 25
16,UCCUC,481 ± 42
17,UGUCA,286 ± 22
18,UGUAG,271 ± 17
19,UGGG,269 ± 16
20,CCACA,344 ± 26
21,GCUGC,920 ± 65
22,GGUUA,402 ± 32
23,GCUCC,410 ± 31
24,UUGG,177 ± 12

row,Sequence,TdT poly-dT extension signal
1,AAUAC,583 ± 71
2,UUCUU,275 ± 14
3,CUACA,270 ± 28
4,GAUGA,482 ± 31
5,AUAAG,392 ± 34
6,AAGU,529 ± 29
7,UCAA,786 ± 31
8,GAGCG,270 ± 29
9,ACUCG,256 ± 14
10,ACCUU,331 ± 34
11,UGACG,235 ± 17
12,CAUAG,475 ± 63
13,ACGAU,414 ± 32
14,CAUCG,238 ± 12
15,GAAUC,464 ± 52
16,CGCUU,440 ± 56
17,CUUCC,359 ± 29
18,AGUCG,229 ± 20
19,GAUC,471 ± 44
20,GCUAU,377 ± 20
21,GGCUG,287 ± 31
22,AAGCA,541 ± 58
23,UGGCC,502 ± 41
